Experimental data: the RNAGym collection of RNA variant scans (doi:10.1093/nar/gkz1192)
The source gives no read counts; variants with many changes may rest on few reads.

B1: CPEB3 Ribozyme (parent)
chain: UAACAGGGGGCCACAGCAGAAGCGUUCACGUCGCAGCCCCUGUCAGAUUCUGGUGAAUCUGCGAAUUCUGCUGUAUAUCUC

Variants of: B1
Experiment: self-cleavage, relative activity (ratio to wild type); higher = more cleavage; in vitro, sequencing
How it was run: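 For each CPEB3 ribozyme variant, relative activity is its cleaved/total read fraction divided by the unmutated ribozyme's. Barcoded error-prone PCR libraries were transcribed by T7 RNA polymerase (5 hours, 37°C) and held in DNase I for 15 min before an EDTA stop, with cleavage occurring throughout. Template-switching reverse transcription and Illumina sequencing were used to read the RNAs. A 5-read minimum applied, and results are the mean of three batches.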

Variant | self-cleavage
UAGCAGUGGGCCACAGCAGAAGCGUUCACGUCGCAGCCCCUGUCAGAUUCUGGAGAAUCUGCGGAUUCUGCUGUAUAUCUC | 0.07
UAGCAGCGGGCCACAGCAGGAGCGUUCACGUCGCAGCCCCUGUCAGAUUCUGGUGAAUCUGCGAAUUCUGCAGUAUAUCUC | 0.06
UAGCAGGGGGCCACAGCAGAAGCGUUCACGUCGCAGCUCCCGUCAGAUUCUGGUGAAUCUGCGAAUUCUGCUGUAUAUCUC | 0.94
UAGCAGGAGGCCUCAGCAGGAGCGUUCACGUCGCAACCCCUGUCAGAUUCUGGUGAACCUGCGAAUUCUGCCGUAUAUCUC | 0.05
UAGCAGAGGGCCACGGCAGGAGCGUUCACGUCGCAGCCCCUAUCAGAUUCUGGUGAAUCUGCAAAUUCUGCUGUAUAUCCC | 0.04
UAGCAGUGGGCCACAGCAGGAGCGUUCACGUCUCAGCCCCUGUCAGAUUCUGGGGAAUCUGCGAAUUCUGCUGUAUAUCUC | 0.07
UAGCAUGGGGCCACAGUAGAAGCGUUCAUGUCGCAGCCCCAGUCAGAUACUGGUGAAUCUGCGAAUUCUGCUGUAUAUCUC | 0.06
UAGCAAGGGGCCACAGCAGAAGCGUUCACGUCGCAGCCCCUGUCAGAUUCUGGUGAAUCUGCGAAUUCUGCUGUAUACCUC | 0.54
UAGCAGGGGGCCACAGCAGAAGCGUUCACGUCGCAGCCUCUGUCAGAUUCUGGCGAAUCUGCGAAUUCUGCUGAAUAUCUC | 0.75
UAGCAAGGGGCCACAGCAGAAGCGUUCACGUCGCAGCACCUGUCGGAUUCUGGUGAAUCUGCGAAUCCUGCUGUAUAUCUC | 0.17
UAGCAGUGGGCCACAGCAGAAGCGUUCACGUCGCAGCCCCUGUCAGAUUCUGGUGAAUCAGCGAAUUCUGCCGUAUAUCUC | 0.05
UAGCAAGGGGCCACAGCAGAAGCAUUCACGCCGCAGCCCCUGUCAGAUUCUGGUGAGUCUGCGAAUUCUGCUGUAUAUCUC | 0.09
UAGCAGCGGGCCACAGCAGAAGCGUUCACGUCGCAGCCCCAGCCAGAUUCUGGUGGAUCCGCGAAUUCUGCUAUAUAUCUC | 0.08
UAGCAGCGGGCCACAGCAGAAGCGUCCACGUCGCAGCCCCUGUCAGAUUCUGGUGAAUCUGCGAAUUCUGCUGUAUAUCUC | 0.42
UAGCAGAGGCCCACAGCAGAAGCAUUCACGUCGCAGCCCCUGACAGAUUCUGGUGAAUCUGCGGAUUCUGCUGUAUAACUC | 0.06
UAGCAGGGGGCCACAGCAGAAGCGUUCACGUCGCAGCACCUGUCAGAUUCUAGUGAGUCCGCGAAUUCUGCUGUAUACCCC | 0.09
UAGCAGUGGGCCACAGCAGAAGCGUUCACGUCGCAGCCCCUGUCAGAUUCUGGUGAAUCUGCGGAUUCUGCUGUAUAUCUC | 0.26

Variant | self-cleavage
UAGCAGGGGGCCACAGCAGAAGCGUUCACGUCGCAGCCCCUGUCAGAUUCUGGUGAAUCUGCGAAUUCUGAUGCAUAUCUC | 0.72
UAGCAAGGGGCCACAGCAGAAGCGUUCACGUCGCUGCCCCUGUCAGAUUCUGGUGAAUCUGCGAAUUCAGCUGUAUAUCUC | 0.38
UAGCAAGGGGCCACUGCAGAAGCGUUCACGUCGCAGCCCCUGUCAGAUACUGGUGACUCUGCGAAUUCUGCUGUAUUCCUC | 0.05
UAGCAUGGGGUCACAGCAGAAGCGUUCACGUCGCAGCCCCUGUCAGGUUCUGGUGUAUCUGCGGAUUCUACUGUAUAUCUC | 0.08
UAGCAGAGGGCCACAGCAGAGGCGUUCACGUCGCAGCCCCUGUCAGAUUCUGGUGAAUCUGCGAAUUCUGCUGUAUUUCUC | 0.5
UAGCAUGGGGCCACAGAGGAAGCGUUCACGUCGCAGCCCCUGUCAGAUUCUGGUGAAUCUGCGAAUUCUGCUGUAUAUCUC | 0.03
UAGCAGGGGGCCACAGCAGAAGCGUUCACGUCGCAGCCCCUGUCAGAUUCUGGUGAAUCUGUGAAUUCUUCUGUAUUUCUC | 0.11
UAGCAGGGGGCCACAGCAGAAGCGUUCACGUCGCAGCCUCCGUCAGAUUCUGAUGGAUCUGCGAAUUCUGCAGUAUAUCUC | 0.13
UAGCAAGGGGCCACAGCAGAAGCGUUCACGUCGCAGCCCCUGUCAGAUUCUGGUGAAACUGCGAAUUCUGCUGUAUAUCAC | 0.29
UAGCAGUGGGCCACAGCAGAAGCGUUCACGUCACAGUCCCUGUCAGACUCUGGUGAAUCUGAGAAUUCUGCUGUAUAUCUC | 0.05
UAGCAAGGGGCCACAGCAGAAGCGUUCACGUCGCAGCCCCUGUCAGAUUCUGGUGAAUCUGCGGAUUCUGCUGUAUAUCCC | 0.1
UAGCAGUGGGCCACAGCAGAAGCGUUCACGUCGCAGCCCCUGUCAGAUUCUGGCGAAACUGCGAAUUCUGCUGUAUAUCUC | 0.25
UAGCAGUGGGCCACAGCAGAAGCGUUCACGUCGCAGCCCCUGCCCGAUUCUGGUGAAUCUGCGAAUUCUGCUGUAUAUCUC | 0.11
UAGCAGGGGGCCACAGCAGAAGCGUUCACGUCGCAGCCCCUGUCAGAUUAUGGUGAAUCUGUGAAUCCUGCUGUAUAUCUC | 0.09
UAGCAUGGGGCCACAGCAGAAGCGUUCACGACGCAGCCCCUGUCGGAUUCUGGUGAAUCUGCGAAUUCUGCUGUAUAUCUC | 0.1
UAGCAGGGGGCCACAGCAGAAGCGUUCACGUCGGAGCCCAUGUCAGAUUCUGGUGAAUCCGCGAAUUCUGCUGUAUAUCUC | 0.16
UAGCAGGAGGCCACUGCAAAAGCGUUCACGUCGCAGCCCCUGACAGAUUCUGGUGAAUCUGCGAAUUCUGCUGUAUACCUC | 0.48
